Experimental data taken from PubChem BioAssay (NCI).
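Growth conditions: 96-well plates. Treatment: test compound, 48 hours, 5 concentrations. Analysis: linear interpolation between bracketing concentrations; unreached endpoints set to highest concentration. GI50: concentration for 50% inhibition of growth. TGI marks complete inhibition of growth.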

Tested on: NCI-H322M lung
Assay: NCI anticancer screen, dose series, 48 h

SMILES | GI50 | TGI
C#C[C@]1(O)CC[C@H]2[C@@H]3CC=C4c5sc(Nc6cccc(F)c6)nc5CC[C@]4(C)[C@H]3CC[C@@]21C | 4.6 µM | 21.3 µM
C/C(=C(\c1ccc(O)cc1)c1ccc(OCCN2CCCCCC2)cc1)c1ccc(Cl)cc1 | 6.03 µM | 11.8 µM
